The record followed here is patent US20200024319A1 (Amgen, published 2020).

The chains are these.
T1: CD25 (IL-2Rα) on the surface of T cells (human, UniProt P01589 22-272)
T1 construct: whole, on cells; also called cell surface CD25
T1 sequence (looked up): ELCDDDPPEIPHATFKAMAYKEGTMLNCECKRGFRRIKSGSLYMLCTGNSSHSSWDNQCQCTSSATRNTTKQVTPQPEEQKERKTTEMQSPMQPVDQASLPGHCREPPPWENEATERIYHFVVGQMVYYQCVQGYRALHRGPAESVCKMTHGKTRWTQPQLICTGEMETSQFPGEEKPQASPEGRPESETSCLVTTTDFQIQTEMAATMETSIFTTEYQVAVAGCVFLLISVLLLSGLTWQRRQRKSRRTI

B1: Fc.WT IgG1Fc(N297G_delK)::G4S::huIL-2(C125A) (Fc fusion)
chain: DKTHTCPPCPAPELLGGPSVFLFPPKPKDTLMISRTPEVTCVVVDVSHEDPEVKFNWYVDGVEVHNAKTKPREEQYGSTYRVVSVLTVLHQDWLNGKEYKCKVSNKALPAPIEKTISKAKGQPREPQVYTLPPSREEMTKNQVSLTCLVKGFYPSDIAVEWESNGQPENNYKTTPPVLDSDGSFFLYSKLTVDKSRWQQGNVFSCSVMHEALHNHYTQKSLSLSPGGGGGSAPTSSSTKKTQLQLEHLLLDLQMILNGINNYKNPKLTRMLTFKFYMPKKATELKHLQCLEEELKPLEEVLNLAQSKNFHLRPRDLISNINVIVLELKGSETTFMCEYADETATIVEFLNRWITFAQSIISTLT
notes: Fc homodimer with two IL-2 domains; also called Fc.WT IL-2; Fc.IL-2(WT, C125A)
B2: Fc.N88D (or Fc.IL-2(N88D)) IgG1Fc(N297G_delK)::G4S::huIL-2(N88D, C125A) (Fc fusion)
chain: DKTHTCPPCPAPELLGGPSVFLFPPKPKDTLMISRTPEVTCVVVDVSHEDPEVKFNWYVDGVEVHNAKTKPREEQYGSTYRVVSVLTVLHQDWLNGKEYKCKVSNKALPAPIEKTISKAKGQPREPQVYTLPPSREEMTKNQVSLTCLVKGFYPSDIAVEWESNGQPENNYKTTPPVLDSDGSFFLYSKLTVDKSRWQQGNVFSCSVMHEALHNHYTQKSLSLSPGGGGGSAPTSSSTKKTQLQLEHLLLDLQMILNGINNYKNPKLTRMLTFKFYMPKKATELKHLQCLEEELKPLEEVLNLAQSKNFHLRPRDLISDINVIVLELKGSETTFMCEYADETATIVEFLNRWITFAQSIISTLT
notes: Fc homodimer with two IL-2 mutein domains
B3: Fc.V91K (or Fc.IL-2(V91K)) IgG1Fc(N297G_delK)::G4S::huIL-2(V91K, C125A) (Fc fusion)
chain: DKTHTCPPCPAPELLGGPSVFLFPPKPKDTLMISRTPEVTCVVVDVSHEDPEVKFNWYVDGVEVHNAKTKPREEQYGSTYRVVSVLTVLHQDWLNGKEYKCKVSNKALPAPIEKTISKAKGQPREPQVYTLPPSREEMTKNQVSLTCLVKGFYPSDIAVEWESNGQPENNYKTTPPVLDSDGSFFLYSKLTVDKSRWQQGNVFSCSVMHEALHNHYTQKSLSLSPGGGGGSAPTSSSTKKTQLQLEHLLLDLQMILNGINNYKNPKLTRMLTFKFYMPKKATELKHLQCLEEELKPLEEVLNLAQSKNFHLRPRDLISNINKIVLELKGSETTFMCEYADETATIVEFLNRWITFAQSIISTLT
notes: as for B2

The first experiment concerns the target T1, CD25 (IL-2Rα) on the surface of T cells. As to the kind of experiment: flow cytometry, CD3+ CD4+ gate: OKT3-prestimulated PBMC pulsed with 400 pM Fc.IL-2 for 30 min at 37 C, harvested after one wash (T0); anti-human IgG-FITC against anti-CD25-APC. (A flow cytometer gives signals particle by particle.)
Regarding B1, the “Cell surface Fc.IL-2 (% of CD3+ CD4+ cells in the gate), T0” value was 23.6%.

For the molecule B2, the “Cell surface Fc.IL-2 (% of CD3+ CD4+ cells in the gate), T0” value turned out to be 29.1%.

On to B3, for which the “Cell surface Fc.IL-2 (% of CD3+ CD4+ cells in the gate), T0” value is 37.6%.

The target is the same in another experiment. As to the kind of experiment: flow cytometry, CD3+ CD4+ gate: OKT3-prestimulated PBMC pulsed with 400 pM Fc.IL-2 for 30 min at 37 C, washed and cultured for four hours; anti-human IgG-FITC against anti-CD25-APC.
B1: the “Cell surface Fc.IL-2 (% of CD3+ CD4+ cells in the gate), 4 hours” value was determined as 3.93%.

In the case of B2, the “Cell surface Fc.IL-2 (% of CD3+ CD4+ cells in the gate), 4 hours” value came out at 16.2%.

As to B3, the “Cell surface Fc.IL-2 (% of CD3+ CD4+ cells in the gate), 4 hours” value is 17%.
